Measurements from the supplement of paper PMC10126150.
Values marked as one replicate rest on one cluster of the flow cell; about a third of the high ones do not repeat.

Test system: ATP
Assay: switch fluorescence ratio, 500 uM ATP over buffer (Cy3 cluster intensity, sum of 5 cycles each) (fold (ratio)); higher = stronger signal-on switching upon ATP binding; sequences stand for … in TCGTCGGCAGCGTCAGATGTGTATAAGAGACAGTTTTTTTTTTTTTTTTTTTTTTTTT…TC
Conditions: aptamer strand: ATP DNA aptamer (quencher-CACCTGGGGGAGTATTGCGGAGGAAGG + anchor), 100 nM annealed; ATP concentration: 500 uM; one replicate
In short: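 Switching-strand clusters labelled with Cy3 on a modified Illumina MiSeq flow-cell were annealed to 100 nM quencher-labelled ATP aptamer, imaged in selection buffer, and re-imaged after 15 min with 500 uM ATP at 22 °C. This was done over five cycles with NaOH stripping and re-annealing in between. The fluorescence ratio is summed target-cycle over summed buffer-cycle Cy3 intensity per cluster, averaged per switch-domain sequence, excluding clusters outside 100-1000 RFU.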
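Note: ATP exposure 15 min at 22 °C before imaging.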

## CATTCAGGGT
  switch fluorescence ratio: 1.01

## TTTTCAGTCG
  switch fluorescence ratio: 1

## AGCGGTTGTC
  switch fluorescence ratio: 0.999

## CGGGGGGCAA
  switch fluorescence ratio: 1.04

## AAGAGCATCG
  switch fluorescence ratio: 0.975

## AACGGGTCAT
  switch fluorescence ratio: 1.04

## TTCTTGCGTT
  switch fluorescence ratio: 0.972

## TATGTGCGGC
  switch fluorescence ratio: 1.01

## CCCCGATGTC
  switch fluorescence ratio: 2.07

## GGAGTAAGGG
  switch fluorescence ratio: 1.03

## CTCAGGGGAT
  switch fluorescence ratio: 1.1

## AGCGGGGTA
  switch fluorescence ratio: 0.957

## ACTGTAATTA
  switch fluorescence ratio: 1.1

## TTGCCGTTTG
  switch fluorescence ratio: 0.927

## TGAGTTCTTT
  switch fluorescence ratio: 1.01

## ACTATATGCG
  switch fluorescence ratio: 1.06

## AATCGACGTC
  switch fluorescence ratio: 1.05

## GAGATGGGCT
  switch fluorescence ratio: 0.984

## TTTCATCAGA
  switch fluorescence ratio: 0.94

## GCAGTGAAAT
  switch fluorescence ratio: 1.04

## ACGTGGCTCA
  switch fluorescence ratio: 1

## GGTGTGGGG
  switch fluorescence ratio: 0.932

## AGGACCGCTG
  switch fluorescence ratio: 1.03

## CCTAACCGGG
  switch fluorescence ratio: 1.17

## TGCTCGTTTG
  switch fluorescence ratio: 0.994

## CATTTTGCAA
  switch fluorescence ratio: 1.26

## GGACAGATTT
  switch fluorescence ratio: 0.979

## AGACAGCCCT
  switch fluorescence ratio: 1.1

## CCGAGGGGAA
  switch fluorescence ratio: 3.01

## AGGCGCGAA
  switch fluorescence ratio: 1.02

## CTTGTTTGTA
  switch fluorescence ratio: 0.998

## GGGGGGGT
  switch fluorescence ratio: 1.04

## TTGACTCTTC
  switch fluorescence ratio: 0.966

## ACTGTTACCC
  switch fluorescence ratio: 1.38

## TACAGGCGCA
  switch fluorescence ratio: 1

## TAATTGTGGT
  switch fluorescence ratio: 0.996

## CCGGACGTAC
  switch fluorescence ratio: 3.05

## TTACGGGATG
  switch fluorescence ratio: 1.03

## TCCTGATGAC
  switch fluorescence ratio: 1.1

## TGGGCAATCA
  switch fluorescence ratio: 1.11

## CCCATGTTTG
  switch fluorescence ratio: 0.997

## GTTTTAATCT
  switch fluorescence ratio: 1

## TCAGGAAGTA
  switch fluorescence ratio: 1.01

## GCAAATACA
  switch fluorescence ratio: 1.07

## TTAGGGCATA
  switch fluorescence ratio: 1.06

## CTTCGGTACG
  switch fluorescence ratio: 0.988

## CACGTCCCTT
  switch fluorescence ratio: 1.01

## AATGCCGTTA
  switch fluorescence ratio: 1.01

## TGATTCGATG
  switch fluorescence ratio: 0.948

## CAAATATTTG
  switch fluorescence ratio: 0.979

## ACTTCTATC
  switch fluorescence ratio: 1.01

## ATGCCGCCAG
  switch fluorescence ratio: 1

## CAAGGCGGTC
  switch fluorescence ratio: 1.04

## ATATTCAATG
  switch fluorescence ratio: 1.03

## AATCAAGTA
  switch fluorescence ratio: 0.997

## CGTCTTTCGC
  switch fluorescence ratio: 1.05

## GGTATACTGC
  switch fluorescence ratio: 0.973

## GGGCTAAA
  switch fluorescence ratio: 2.94

## GGGTTCAGGA
  switch fluorescence ratio: 0.974

## TCGCGGGGTC
  switch fluorescence ratio: 1.02

## GCTTATCGGC
  switch fluorescence ratio: 0.967

## GCATGAATTC
  switch fluorescence ratio: 0.975

## AGTTGGACGG
  switch fluorescence ratio: 0.99

## AATACTGAGA
  switch fluorescence ratio: 1.03

## AATAGGTTT
  switch fluorescence ratio: 0.998

## ATACGGAATC
  switch fluorescence ratio: 2.4

## ATAGTACCAA
  switch fluorescence ratio: 1.05

## GGAGTTTGCT
  switch fluorescence ratio: 0.969

## CTTGTCGTTT
  switch fluorescence ratio: 1

## GCATGGGACT
  switch fluorescence ratio: 1.03

## TGTTGACTTG
  switch fluorescence ratio: 1.04

## TGCTAACGAT
  switch fluorescence ratio: 1

## AACGAAGGGG
  switch fluorescence ratio: 1.05

## AATCGGCCA
  switch fluorescence ratio: 1.04

## TAGCTCCTCC
  switch fluorescence ratio: 1.2

## TCGTATTTAG
  switch fluorescence ratio: 1.03

## ACTATCGGTA
  switch fluorescence ratio: 1.05

## TTCAGGGAAT
  switch fluorescence ratio: 0.976

## TCCGTTCCAA
  switch fluorescence ratio: 1.07

## ACAGAGTGGG
  switch fluorescence ratio: 1.03

## GTGCCCTATT
  switch fluorescence ratio: 1.04

## CCGATCTTAG
  switch fluorescence ratio: 1.12

## CACTGTATGG
  switch fluorescence ratio: 1.2

## GCTCGCTGCT
  switch fluorescence ratio: 0.993

## ATACTCTGGG
  switch fluorescence ratio: 0.982

## CAGGTTGCCG
  switch fluorescence ratio: 0.994

## AGCCGCATCA
  switch fluorescence ratio: 0.951

## TACATACCGC
  switch fluorescence ratio: 1.29

## ACGTCGCGCG
  switch fluorescence ratio: 0.993

## CCAATTTAAT
  switch fluorescence ratio: 1.03

## GGGGATCTCT
  switch fluorescence ratio: 1.03

## AGGGAGTGGA
  switch fluorescence ratio: 1.02

## TAGAGGGAAT
  switch fluorescence ratio: 0.984

## AAGCATCCCA
  switch fluorescence ratio: 1.01

## GGTAAGGTGG
  switch fluorescence ratio: 0.988

## TTTCCGGGAT
  switch fluorescence ratio: 1.04

## CAGGTTGTGA
  switch fluorescence ratio: 1

## TCTTCGTCTC
  switch fluorescence ratio: 1.07

## GTAGATATTG
  switch fluorescence ratio: 1

## CCGTGCTTTC
  switch fluorescence ratio: 1.9

## CTCTACTGA
  switch fluorescence ratio: 1.06

## CCAATTTGCG
  switch fluorescence ratio: 1.03

## GGCGTATTAC
  switch fluorescence ratio: 1.29

## ACTGAGCGGT
  switch fluorescence ratio: 1.01

## GGGACTATAT
  switch fluorescence ratio: 1.07

## TTTGTACACC
  switch fluorescence ratio: 1.01

## GCATGGGATT
  switch fluorescence ratio: 0.974

## AAAACGGTCT
  switch fluorescence ratio: 1.03

## CGCGGTATTG
  switch fluorescence ratio: 1.03

## AGTGCTTCTG
  switch fluorescence ratio: 1.07

## TCGAATATAT
  switch fluorescence ratio: 0.967

## AGTATGTTAG
  switch fluorescence ratio: 0.973

## CCATCGATTC
  switch fluorescence ratio: 1.03

## GCCTACGGGG
  switch fluorescence ratio: 1.03

## AAGGACCAAT
  switch fluorescence ratio: 1.04

## ATAAGGCGGC
  switch fluorescence ratio: 1.03

## CGGTCTAGGA
  switch fluorescence ratio: 0.938

## TTTCGTGACA
  switch fluorescence ratio: 1.04

## CATGTTAAGG
  switch fluorescence ratio: 1

## TGTGGGATA
  switch fluorescence ratio: 0.966

## TTATAAAA
  switch fluorescence ratio: 0.945

## AGTATATCAG
  switch fluorescence ratio: 0.992

## CTCTTAAACT
  switch fluorescence ratio: 0.97

## GCATTGGGCG
  switch fluorescence ratio: 1.01

## CTTTGATAGG
  switch fluorescence ratio: 1.01

## TTGTGTGAAG
  switch fluorescence ratio: 0.98

## CGAATAAGCC
  switch fluorescence ratio: 1

## TTCCATTTAC
  switch fluorescence ratio: 1.15

## AATCTCCAAA
  switch fluorescence ratio: 1.04

## CAAATTAGCC
  switch fluorescence ratio: 0.976

## CCACTAAATT
  switch fluorescence ratio: 1.06

## GTGCGAACCC
  switch fluorescence ratio: 1.06

## TAGTACCGCC
  switch fluorescence ratio: 1.18

## GCAGGTCTAC
  switch fluorescence ratio: 1.05

## TGATATGCCA
  switch fluorescence ratio: 0.981

## GCGGTTAAGC
  switch fluorescence ratio: 0.974

## AAGGTCGCAA
  switch fluorescence ratio: 1.22

## TAGGCATGTA
  switch fluorescence ratio: 1.02

## AATCATGACT
  switch fluorescence ratio: 1.02

## TGGCTGCGCC
  switch fluorescence ratio: 1.01

## ACTGCGTCCG
  switch fluorescence ratio: 1.18

## GCCACGACAA
  switch fluorescence ratio: 1.13

## TGTCGATATA
  switch fluorescence ratio: 1.02

## CGCTATCATT
  switch fluorescence ratio: 0.993

## CAAAGGTTTT
  switch fluorescence ratio: 1.01

## CCAGATAAGT
  switch fluorescence ratio: 1

## GTGCTTATGC
  switch fluorescence ratio: 0.968

## GAGGAGAAGC
  switch fluorescence ratio: 0.978

## TACATTCTCC
  switch fluorescence ratio: 1.14

## CAATGGTCTG
  switch fluorescence ratio: 0.983

## CCGGGTCTGA
  switch fluorescence ratio: 1.03

## TCTCAGTACG
  switch fluorescence ratio: 1.04

## CTTACTATCA
  switch fluorescence ratio: 1.01

## CTGTTCTAGG
  switch fluorescence ratio: 1.03

## GGATTTCGTT
  switch fluorescence ratio: 0.942

## AGCACCTGCA
  switch fluorescence ratio: 1.06

## GTTAGGTTGT
  switch fluorescence ratio: 0.953
